Among all 310,000 compounds or so, about 2,200 (0.71%) showed an effect of 50% or more. The effect is printed as a negative number. Some of the results follow.
Target: human ether-à-go-go-related gene (hERG) potassium channel (human, UniProt Q12809)
Assay: primary screen, population patch clamp on CHO cells stably expressing hERG

human ether-à-go-go-related gene (hERG) potassium channel, sequence (Q12809 whole entry, looked up): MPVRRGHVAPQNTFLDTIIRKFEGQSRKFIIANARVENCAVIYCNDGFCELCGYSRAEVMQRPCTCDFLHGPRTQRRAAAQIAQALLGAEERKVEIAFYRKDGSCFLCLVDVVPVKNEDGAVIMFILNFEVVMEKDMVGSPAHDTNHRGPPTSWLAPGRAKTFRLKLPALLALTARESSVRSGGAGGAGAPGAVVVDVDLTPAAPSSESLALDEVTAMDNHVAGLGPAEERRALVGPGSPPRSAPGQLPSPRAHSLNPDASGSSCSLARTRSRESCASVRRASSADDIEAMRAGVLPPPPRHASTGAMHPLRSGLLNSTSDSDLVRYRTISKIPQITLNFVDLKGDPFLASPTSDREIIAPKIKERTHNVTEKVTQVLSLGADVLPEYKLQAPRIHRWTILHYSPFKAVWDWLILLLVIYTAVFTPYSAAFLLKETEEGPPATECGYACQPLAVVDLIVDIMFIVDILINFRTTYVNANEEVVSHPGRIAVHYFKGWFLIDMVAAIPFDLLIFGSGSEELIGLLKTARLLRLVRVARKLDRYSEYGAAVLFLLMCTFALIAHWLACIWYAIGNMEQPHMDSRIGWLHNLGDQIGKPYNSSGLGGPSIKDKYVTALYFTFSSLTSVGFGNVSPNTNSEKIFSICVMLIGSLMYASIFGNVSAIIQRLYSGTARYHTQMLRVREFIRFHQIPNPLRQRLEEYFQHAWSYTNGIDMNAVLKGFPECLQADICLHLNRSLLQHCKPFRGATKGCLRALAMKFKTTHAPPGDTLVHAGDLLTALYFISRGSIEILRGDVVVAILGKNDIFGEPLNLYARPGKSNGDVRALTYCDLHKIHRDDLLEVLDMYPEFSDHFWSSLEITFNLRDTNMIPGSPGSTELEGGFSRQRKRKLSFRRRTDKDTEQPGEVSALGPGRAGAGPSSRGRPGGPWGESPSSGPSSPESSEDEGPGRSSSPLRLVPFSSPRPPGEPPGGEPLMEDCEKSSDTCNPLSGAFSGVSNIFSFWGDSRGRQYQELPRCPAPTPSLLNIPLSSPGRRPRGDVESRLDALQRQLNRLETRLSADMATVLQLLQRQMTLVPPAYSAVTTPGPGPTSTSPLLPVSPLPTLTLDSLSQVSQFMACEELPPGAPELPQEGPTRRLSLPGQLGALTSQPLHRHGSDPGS

SMILES | hERG current change (%, negative = inhibition) at 1uM
COc1ccccc1CCNC(=O)COc1cccc2c1OC(C)(C)C2 | 2.74%
O=C(O)C1C2CCC(C2)C1C(=O)Nc1cccc([N+](=O)[O-])c1 (stereo not shown) | 15.1%
Cc1cc(OCCN2CCCCC2)nc2ccccc12.Cl | -22.7%
Cc1cc(NC(=O)C(C)SCC(=O)O)no1 (stereo not shown) | 3.41%
O=C(C1CCN(S(=O)(=O)c2ccc(Br)s2)CC1)N1CCN(C2CCCCC2)CC1 | 5.96%
COc1ccc(NC(=O)NNC(=O)COc2ccc3ccccc3c2)cc1OC | 13.2%
COc1ccc(/C=C(/NC(=O)c2ccc(C)cc2)C(=O)NCC2CCCO2)cc1 (stereo not shown) | 5.79%
Cc1snc2sc(C(=O)c3ccc(F)cc3)c(N)c12 | 8.84%
CCN=C1S/C(=C\c2ccc(-c3cccc(C(=O)O)c3)o2)C(=O)N1CC | 15.8%
O=C1CCCN1CC1CCCN(Cc2nc(COc3ccccc3)no2)C1 (stereo not shown) | 14%
CN(C)CCCOC(=O)c1ccccc1 | 6.77%
O=C(N/N=C/c1c(F)c(F)c(F)c(F)c1F)c1cc(-c2ccccc2)nc2ccccc12 | 12%
Cc1cccc(C(CC(=O)N2CCCC2)c2ccccc2)c1O (stereo not shown) | 9.96%
COc1cccc(NC(=O)C(C)(C)C)c1 | 2.1%
N#Cc1cc2[nH]c3ccccc3c2[n+](-c2ccc([N+](=O)[O-])cc2)c1N.[Cl-] | -28.7%
CC(=O)c1sc(-c2ccc(F)cc2)cc1NS(=O)(=O)c1ccccc1 | 23.8%
N=C1SC(CC(=O)Nc2ccccc2[N+](=O)[O-])C(=O)N1c1ccccc1 (stereo not shown) | 31.7%
Cc1c(C(=O)N(C)C(C)c2ccccn2)oc2c(F)cccc12 (stereo not shown) | 10.2%
COc1ccc(CN(C(=O)c2cccs2)c2ccccc2)cc1 | 22.1%
[O-][n+]1c2c(nn1-c1ccccc1)/C(=N/O)CCC2 | 0.495%
CCCN1CN(Cc2ccccc2)CC2=C1CC(C)(C)CC2=O.Cl | -1.42%
CC1=CC(C#N)(C#N)C(C#N)(C#N)C(c2ccccc2)N1 (stereo not shown) | 16.2%
COc1ccc(C/C(C)=N/NC(=S)Nc2ccccc2F)cc1 | 13.7%
COc1cccc(CN2CCN(C(=O)COc3ccc4ccccc4c3)CC2)c1 | 10.5%
COC(=O)C1CN(C(=O)C(C)Oc2ccccc2Cl)c2ccccc2O1 (stereo not shown) | 4.94%

From publication PMC4336329 (PLoS ONE, 2015)
